Assay results from PubChem BioAssay AID485294 (National Center for Advancing Translational Sciences (NCATS), 2010).
The campaign covered roughly 370,000 compounds. About 150 (0.041%) were called active. The shares of active, inactive and inconclusive entries below differ from those in the screen. Calls follow the shape of the dose curve; as a rule, active = well fitted inhibition curve with a large enough effect; inconclusive = small, poorly fitted or top-dose-only effect; inactive = flat fitted curve, though single readings scatter. Potencies of inconclusive entries are left out as doubtful fits.

biological target: Beta-lactamase (Escherichia coli (strain K12)) (UniProt P00811); test: qHTS Inhibitors of AmpC Beta-Lactamase (assay with detergent); details: AmpC hydrolysis of nitrocefin, absorbance 480 nm, 0.01% Triton; activity change, negative = inhibition: at 114 µM (top of the series); also: nearly all actives have a fitted effect of over 25% in size;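 as to activity change, negative = inhibition: 0% = no-compound wells and -100% = no-enzyme wells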
Summary of the method: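 20 mM phosphate pH 7.0 + 0.01% (detergent screen) or 0.0001% Triton X-100; 5.3 nM AmpC reagent; cpd preinc 15 min RT; nitrocefin (800 uM stock) to start; A480 q20 s × 4 min; Activity was normalised to no-enzyme and no-compound control wells.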
Potency is read from the fitted curve at half-maximal effect; tags tell the direction and shape of the fitted curve.

UniProt P00811, sequence (P00811 whole entry, looked up): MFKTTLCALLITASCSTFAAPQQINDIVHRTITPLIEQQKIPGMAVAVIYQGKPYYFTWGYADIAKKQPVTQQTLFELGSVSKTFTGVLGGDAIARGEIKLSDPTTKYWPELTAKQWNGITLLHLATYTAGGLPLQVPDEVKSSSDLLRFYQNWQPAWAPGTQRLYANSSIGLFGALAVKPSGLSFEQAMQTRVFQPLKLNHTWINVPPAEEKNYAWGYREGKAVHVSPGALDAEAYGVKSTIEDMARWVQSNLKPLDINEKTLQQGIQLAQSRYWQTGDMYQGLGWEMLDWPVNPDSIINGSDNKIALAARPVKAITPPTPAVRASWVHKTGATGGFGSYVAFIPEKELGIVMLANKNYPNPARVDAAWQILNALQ

Row | Compound | Potency | activity change, negative = inhibition
1 | CCCN(C(=O)COC(=O)CCOc1ccc(C)cc1)c1c(N)n(Cc2ccccc2)c(=O)[nH]c1=O | inconclusive [inhibitor, partial curve, poor fit] | 
2 | O=C(CSc1nnc(-c2cccnc2)n1Cc1ccco1)NCc1ccc2c(c1)OCO2 |  | inactive: -16.3%
3 | Cc1cnc(NC(=O)C(C)N2CCN(C)CC2)s1 (stereo not drawn) | inconclusive [inhibitor, partial curve, poor fit] | 
4 | Cc1ccc(S(=O)(=O)Nc2nc3ccccc3s2)cc1 | inconclusive [inhibitor, full curve, poor fit] | 
5 | CC(C)(C)c1ccc(/C=N/Nc2nncn2N)cc1 | inconclusive [inhibitor, full curve, poor fit] | 
6 | CC(C)CC(NC(=O)C(CO)NC(=O)C1CCC(=O)N1)C(N)=O (stereo not drawn) |  | inactive: -10.2%
7 | CCOC(=O)CSc1nc(N)cc(=O)[nH]1 | inconclusive [inhibitor, partial curve, poor fit] | 
8 | O=[N+]([O-])c1cccc2c(N3CCOCC3)ccnc12 | inconclusive [inhibitor, full curve, poor fit] | 
9 | CCOC(=O)CSc1nnc(NC(=O)c2cccc(S(=O)(=O)N3CCCCCC3)c2)s1 | inconclusive [inhibitor, full curve] | 
10 | Cc1cccc(OCc2nnc(NC(=O)c3cccs3)s2)c1 | inconclusive [inhibitor, full curve, poor fit] | 
11 | COc1cc(/C=C2\COC/C(=C\c3ccc(O)c(OC)c3)C2=O)ccc1O |  | inactive: -3.26%
12 | c1ccc2c(c1)-c1cccc3cccc-2c13 |  | inactive: -2.96%
13 | CCCCn1nnc(NC(=O)CC23CC4CC(CC(C4)C2)C3)n1 | inconclusive [inhibitor, partial curve] | 
14 | CN(CC(=O)Nc1ccccc1C(F)(F)F)C(=O)c1cc(Cl)nc2ccccc12 |  | inactive: 0.952%
15 | CCOC(=O)C1=C(C)N=C2SCCC(=O)N2C1c1cccs1 (stereo not drawn) | inconclusive [inhibitor, partial curve, poor fit] | 
16 | COc1cccc(C(c2nnnn2Cc2ccco2)N2CCN(c3cccc(C)c3C)CC2)c1OC (stereo not drawn) |  | inactive: -13.1%
17 | COc1ccc(NC(=O)CC(Cc2ccccc2)C(=O)O)cc1 (stereo not drawn) | inconclusive [inhibitor, full curve, poor fit] | 
18 | Cc1ccc(NC(=O)CCN2C(=O)C3C4CCC(C4)C3C2=O)cc1Cl (stereo not drawn) |  | inactive: -13.7%
19 | CCS(=O)(=O)N1Cc2ccccc2CC1C(=O)Nc1ccc(F)c(F)c1 (stereo not drawn) |  | inactive: 4.5%
20 | Cc1cc(C)cc(NS(=O)(=O)c2ccc(-c3cnc(C4CC4)o3)cc2)c1 | inconclusive [inhibitor, single point] | 
21 | Cc1ccc(C)c(S(=O)(=O)N2CCN(C(=O)c3ccc(N4CCCC4)c([N+](=O)[O-])c3)CC2)c1 | inconclusive [inhibitor, partial curve] | 
22 | COc1cccc(NC(=O)CN2CCN(c3ccc(F)cc3)CC2)c1 | inconclusive [inhibitor, full curve, poor fit] | 

Row | Compound | Potency | activity change, negative = inhibition
23 | COc1ccc(NC(=O)CN(C)C(=O)CCNC(=O)c2ccccc2OC)cc1 | inconclusive [inhibitor, full curve, poor fit] | 
24 | C=CCOc1c(Br)cc(CNc2ccc(NC(=O)C(C)C)c(OC)c2)cc1OCC |  | inactive: -7.1%
25 | O=C(COC(=O)C1CCN(c2ccc(C(F)(F)F)cn2)CC1)c1ccccc1Cl | inconclusive [inhibitor, full curve, poor fit] | 
26 | COc1ccc(/C=C(\C#N)C(=O)Nc2ccccn2)cc1 |  | inactive: -2.42%
27 | Cc1ccc(-c2nc3ccccn3c2Nc2ccc3c(c2)OCCO3)s1 |  | inactive: 12.1%
28 | O=C(CSc1nnc(COc2ccccc2)o1)N1CCN(c2ccccc2)CC1 | inconclusive [inhibitor, partial curve, poor fit] | 
29 | c1ccc(CCn2nnnc2C(c2cccs2)N2CCN(Cc3ccc4c(c3)OCO4)CC2)cc1 (stereo not drawn) | inconclusive [inhibitor, single point] | 
30 | O=C(CCn1nc(-c2ccccc2)ccc1=O)N1CCCC1 | inconclusive [inhibitor, partial curve] | 
31 | Cc1cc(C(=O)CSc2nnc(-c3ccc(Cl)cc3)n2C)c(C)n1CC1CCCO1 (stereo not drawn) |  | inactive: -9.34%
32 | COc1cc2c(cc1OC)C1O[C@](CCCCN3C(=O)c4ccccc4C3=O)(C2)OC2=C1C(=O)CCC2 | inconclusive [inhibitor, single point] | 
33 | c1ccc2c3c([nH]c2c1)C1(CCCCC1)NCC3 | inconclusive [inhibitor, full curve] | 
34 | Cc1ccc(S(=O)(=O)N2CCCC2C(=O)Nn2cnnc2)cc1 (stereo not drawn) | inconclusive [inhibitor, single point] | 
35 | O=C1CC(c2cccc(Cl)c2)CC(O)=C1C=Nc1ccccc1 (stereo not drawn) | inconclusive [inhibitor, full curve, poor fit] | 
36 | COc1ccc(S(=O)(=O)N2CCOC23CCN(S(C)(=O)=O)CC3)cc1 | inconclusive [inhibitor, full curve] | 
37 | CNCc1ccccc1Sc1ccc(O)c(O)c1 | inconclusive [inhibitor, partial curve] | 
38 | CCCCOC(=O)Nc1ccc(C(C)C)cc1 | inconclusive [inhibitor, single point] | 
39 | O=C(Nc1ccccc1)C1C2CCCCC21 (stereo not drawn) | inconclusive [inhibitor, full curve, poor fit] | 
40 | COc1cccc(CNc2ccc([N+](=O)[O-])cc2Cl)c1O |  | inactive: 6.35%
41 | COc1ccc(C)cc1N1CC(C(=O)OCc2nc(N)nc(Nc3ccccc3C)n2)CC1=O (stereo not drawn) | inconclusive [inhibitor, single point] | 
42 | O=C(Nc1nnc(CSCc2ccc(Cl)cc2)s1)c1cccc([N+](=O)[O-])c1 | inconclusive [inhibitor, single point] | 
43 | COc1ccc(-c2nc3c(c(SCC(=O)N4CCOCC4)n2)COC(C)(C)C3)cc1 | inconclusive [inhibitor, single point] | 
